The full ranking holds about 5,400 compounds; the median of “IFI” is about 2, and the highest 2% start at about 22. The list shows a part of the results.
Experiment: NOVARTIS: Inhibition Frequency Index (IFI) - the number of HTS assays where a compound showed > 50% inhibition/induction, expressed as a percentage of the number of assays in which the compound was tested.
Type: functional

Going from Nc1nc(N)c2nc(CCc3ccc(C(=O)N[C@H](CCC(=O)O)C(=O)O)cc3)cnc2n1 to CCCc1c2ccc(C)n2cc[n+]1CC(=O)c1ccc(OC)cc1, the IFI falls from 16% to 4.54%.

Going from CC(NS(=O)(=O)c1ccccc1)C(c1cccs1)N1CCN(c2ccccc2F)CC1 (centres undefined) to O=[N+]([O-])c1ccc(S(=O)(=O)N2CCN(C(=S)NCc3ccccc3)CC2)cc1, the IFI falls from 6.06% to 0%.

Going from CC[C@H](C)C[C@H]1CC[C@](O)([C@](C)(O)C(=O)N[C@@H]2C(=O)N3NCCC[C@@H]3C(=O)N(O)[C@@H](C)C(=O)NCC(=O)N3NCCC[C@H]3C(=O)N(O)[C@H](C)C(=O)O[C@H]2C(C)C)O[C@@H]1C to CC1CCCCN1CCCNc1ncc(C(=O)NCCCN2CCCC2=O)c(NCC2CCCCC2)n1 (centres undefined), the IFI falls from 34.4% to 3.92%.

First: CCCn1c(C(CC)N2CCNCC2)nc2ccccc2c1=O (centres undefined)
Second: COc1cc2nc(NCCN3CCOCC3)n3nc(-c4ccccc4)nc3c2cc1OC
The IFI of the first is higher: 2.8% for the first, 0% for the second.

CC1CC(C)CN(CCCNc2ccc(C(=O)Nc3ccc(C(F)(F)F)cc3)cc2[N+](=O)[O-])C1 (centres undefined) and Cc1cccc(NC(=O)c2ccc(NCCCC3CCCCCC3)c([N+](=O)[O-])c2)c1 are the same in IFI: 0% for the first, 0% for the second.

First: CCOC(=O)C1=C(C)NC2=C(C(=O)CC(c3ccc(OC)c(OC)c3)C2)C1c1cccc(Br)c1 (centres undefined)
Second: CCOC(=O)C1=C(C)NC2=C(C(=O)CC(c3ccc(OC)c(OC)c3)C2)C1c1cccc(Cl)c1 (centres undefined)
The IFI of the first is lower: 2.35% for the first, 3.53% for the second.

First: COc1ccc(NC(=O)c2cc3cc(C4(O)CCN(CC(C)c5ccccc5)CC4)ccc3o2)cc1 (centres undefined)
Second: COc1ccc(CCN2C(=O)N(CC(C)C)C(=O)C23CCN(Cc2ccccc2O)CC3)cc1
The IFI of the first is lower: 3.92% for the first, 7.32% for the second.

First: OC1=C2C(=Nc3ccccc3SC2c2cccs2)c2ccccc21 (centres undefined)
Second: COc1ccccc1-n1c(S)nnc1-c1ccccc1O
The IFI of the first is lower: 2.27% for the first, 3.57% for the second.

Going from CCN(c1ccc(OC)cc1)S(=O)(=O)c1ccc(C)cc1 to CCCCOc1nc(-c2ccc(OC)cc2)n(C(=O)c2ccccc2OC)n1, the IFI rises from 0% to 7.41%.

Going from Cc1c(/C=C2\SC(=Nc3ccccc3F)N(C3CCCCC3)C2=O)c2ccccc2n1CC(N)=O to O=C1CN(C(=O)CCC2CCCCC2)C(c2ccccc2)c2cc(F)ccc2N1 (centres undefined), the IFI rises from 2.44% to 5.88%.

First: COc1ccc([C@@H]2Nc3ccc(C(C)=O)cc3[C@@H]3C=CC[C@@H]32)cc1[N+](=O)[O-]
Second: CCOC(=O)C1=C(C)NC2=C(C(=O)CC(c3ccc(OC)c(OC)c3)C2)C1c1ccccc1Br (centres undefined)
The IFI of the first is lower: 0% for the first, 3.53% for the second.

Going from COc1ccccc1NC(=O)CCN1CCCC(C)C1 (centres undefined) to COc1cccc(-c2ccc(O)c(CN3CCCC(C)C3)c2)n1 (centres undefined), the IFI rises from 0% to 2.88%.

First: COc1cc(/C=C2/SC(=Nc3ccccc3)NC2=O)ccc1OCc1ccccc1F
Second: COC(=O)c1c(OCc2ccc(F)cc2)cc(=O)n2c1CCN(Cc1ccccc1)CC2
The IFI of the first is higher: 1.14% for the first, 0% for the second.

Compared with Cc1cccc(NC(=S)NC2CC3CCCC(C2)N3CCc2ccccc2)c1 (centres undefined), COc1ccc(C(=O)/C(C#N)=C/NC2CCN(Cc3ccccc3)CC2)cc1 is higher in IFI: 2.56% for the first, 3.33% for the second.

Going from CC(=O)c1c(C)oc2ccc(NS(=O)(=O)c3cccc(C(=O)O)c3)cc12 to Cc1cc(C)c(S(=O)(=O)N2CCC(NC(=O)c3ccccc3)CC2)c(C)c1, the IFI rises from 0% to 3.8%.

Going from O=c1[nH]c2cc(Cl)c(Br)nc2[nH]1 to O=C(Nc1cc(Cl)cc(Cl)c1)Nc1cccc(C(F)(F)F)c1, the IFI rises from 0% to 17.3%.

Compared with CCN1/C(=C/c2cccc[n+]2C)C=Cc2ccc(C)cc21, CCNc1nc(OC)nc(Oc2ccc(=O)n(-c3ccccc3)n2)n1 is lower in IFI: 7.79% for the first, 0% for the second.

Going from CN(C)c1nc(Cl)nc(N(C#N)CCOc2ccccc2)n1 to CN(CCCNc1ccnc2cc(Cl)ccc12)C(=O)COc1ccccc1, the IFI rises from 0% to 2.8%.

First: COc1cc(C(=O)N2N=C(c3c(-c4ccccc4)c4cc(Br)ccc4[nH]c3=O)CC2c2cccc([N+](=O)[O-])c2)cc(OC)c1OC (centres undefined)
Second: CCOC(=O)c1ccc(N(C(=O)Cc2c[nH]c3ccccc23)C(C(=O)NC2CCCCC2)c2cccc(OC)c2OC)cc1 (centres undefined)
The IFI of the first is lower: 1.11% for the first, 1.92% for the second.

Going from O=C(Nc1ccc(C2=NCCN2)cc1)c1ccc(-c2ccc(C(=O)Nc3ccc(C4=NCCN4)cc3)cc2)cc1 to O=C(Nc1ccc(-c2nc3ccc(NC(=O)c4cccc5ccccc45)cc3[nH]2)cc1)c1cccc2ccccc12, the IFI falls from 4.4% to 0%.

First: CCOc1cccc(Nc2c3c(nc4ncnn24)CCC3)c1
Second: CCc1cc2c(Nc3ccncc3)ncnc2s1
The IFI of the first is lower: 0% for the first, 1.51% for the second.

First: CCC(C)(C)C1CCc2sc3ncnc(NN=Cc4c(Cl)cccc4Cl)c3c2C1 (centres undefined)
Second: CCN(CC)c1ccc(C2N(Cc3ccccc3)CCN2Cc2ccccc2)c(O)c1
The IFI of the first is higher: 4.41% for the first, 0% for the second.

Going from CCC(=O)N=c1sc2cc([N+](=O)[O-])ccc2n1CCOC to Cc1ccn2c(NC(C)(C)CC(C)(C)C)c(-c3ccccc3OC(=O)c3ccccc3Br)nc2c1, the IFI rises from 0% to 2.13%.

Going from COc1ccc(-c2nc(-c3ccc(-c4[nH]c(-c5ccc(OC)cc5)nc4-c4ccccc4)cc3)c(-c3ccccc3)[nH]2)cc1 to CCc1ccccc1N(CC(=O)NC1CCCCC1)C(=O)CCC(=O)Nc1ccccn1, the IFI rises from 0% to 1.56%.

COc1cc(C(=O)OCCC2CCC[N+]3(C)CCCCC23)cc(OC)c1OC (centres undefined) gave an IFI of 1.85%.
